Measurements published in a collection of fitness landscapes (doi:10.1016/j.celrep.2020.107928).
Over roughly 81,000 sequences, “one-hybrid fitness for binding NBS DNA” has its median near -0.1; the highest 2% begin near 0.36. This is one part of the list.

B1: Caulobacter ParB omega fusion; a variant is named by its letters at X, in order, B8GW30 (parent)
chain: MESVVVGEPGMSEGRRGLGRGLSALLGEVDAAPAQAPGEQLGGSREAPIEILQRNPDQPRRTFREEDLEDLSNSIREKGVLQPILVRPSPDTAGEYQIVAGERAWRAAQRAGLKTVPIMVRELDDLAVLEIGIIENVQRADLNVLEEALSYKVLMEKFERTQENIAQTIGKSXSHVANXMRLLXLPDEVQSYLVSGELTAXHARAIAAAADPVALAKQIIEGGLSVRETEALARKAPNLSAGKSKGGRPPRVKDTDTQALESDLSSVLGLDVSIDHRGSTGTLTITYATLEQLDDLCNRLTRGI

Variants of: B1
Assay: one-hybrid fitness for binding NBS DNA (the Noc-binding site; scaled: cognate 1, non-cognate 0); higher = stronger binding
Settings: with NBS DNA site
How it was run: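 On M9-minus-histidine containing 0.1 mM IPTG and 5 mM 3-AT, E. coli USO cells with a HIS3 reporter, site 19 bp from the promoter, grew 48 hours at 37°C to select Caulobacter ParB libraries randomised at four specificity codons. Plasmids from before and after were Illumina-sequenced, with three replicate libraries pooled and variants under 10 reads left out. Fitness is the log change in variant-to-wild-type read ratio, rescaled against cognate and non-cognate.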

one-hybrid fitness for binding NBS DNA, 0.6:
QRTA

one-hybrid fitness for binding NBS DNA, 0.338:
IDKR

one-hybrid fitness for binding NBS DNA, 0.255:
QIWT

one-hybrid fitness for binding NBS DNA, ≤ 0.2:
GDSV
SYPY
ANTE
RPWG
YRMA
NSGG
FFNS
LAHS
QSEV
NIPH
KSPK
GMEC
SDMS
IHAC
WLWT
GMFV
YWES
RKYW
AMSI
LIWG
DVPV
QDQM
TWLQ
HRSY
WRAS
CQSV
YVKG
LSTY
FAWS
CRVR
TLVK
TSMF
PLSW
FSDT
MFVG
PYLT
WSTW
RCGH
LLFI
VAAS
CFLE
NGAG
VQKA
NSLH
QPCY
RYSN
YYYR
IARW
VTWI
QANK
RRFK
FCRS
TSIV
LYST
GRVI
SYKK
QAMW
MNLI
LAPL
GAFV
THRG
SMIR
SMQM
RCRF
VNKE
MAHT
DIHI
QFAC
RWYG
LSWW
PADK
LLHA
LYKD
WELS
CPVT
RERV
ALCN
CSQC
FSAG
NDAV
MQCC
NHRI
IYRF
IWRK
TNIL
YRAN
QHLK
QMMQ
VNIR
KRMC
ASSW
DLRC
ESPT
RYYD
TPEV
QVAH
RSEV
ILLL
QMAG
DNKD
DMYI
GRSE
SYLI
RTLA
MHSC
SNDT
LPAA
FLEL
NAWT
NDAL
QYDW
MHSS
QAVW
LLHM
VVML
QDLE
SVMR
FAYS
DWHW
YPGS
TYLY
RDMM
QGFV
RLWD
DLRM
GMQF
IVVR
AMHW
RSCP
VIMS
QSLE
QESE
TLPN
RITL
RDTY
TWNN
CQYG
LPDD
VVST
QSNN
SCAL
MVFD
QYEE
MRRY
WDNG
RVQE
HLFA
NLGC
TLIH
ATAA
LAGW
QEER
DFPS
AEVD
GLKV
SACD
PWDA
PHRI
SFRV
FTNN
DAGN
WVGM
RLGD
PQAG
VGKH
RSTC
MDAM
KLPN
TRMM
TCHT
RMTA
NIHC
AAWT
CKGG
QGHC
YPWV
LRMF
GPKL
YRLT
DKFG
ACRP
TSIP
RNGW
INQT
SRSP
YPFT
SSTT
CQEI
SYAD
STDG
LLHQ
KPIF
KTPH
SYSM
DTPI
WHGV
ATLG
WMAS
RKAN
NQTA
YSLA
LRAY
ELTT
GSSW
HYWG
ACPA
HLIF
EARQ
QCWC
SIDG
WCNL
QPCL
YASA
VHII
RFVC
YPAV
YNKS
RMDP
CFKG
NESM
NRVM
STSD
SYGM
VGER
DLYD
TGGT
REYM
IPRG
LPLY
HVWM
AGDD
ASQY
KHQP
MRRK
IHMM
PSFT
VPDC
WGCS
KYAG
NKTG
WPNR
SGSG
AKEK
NFTQ
PEMM
YYNE
ARAS
TESV
VSKT
GHPC
DPMM
HPNI
WHGK
QSNG
VKHR
IYVV
LKSH
IFNS
TYVH
QYGK
FDEG
LGNF
NKRY
EPIY
DKKR
ECGG
VFQE
TLAH
YLKV
QSQW
GSES
TECW
EVTR
YRYW
VKSR
YYAR
RSVN
PHVF
LWRN
QFIS
LPCC
LRQS
TGTG
TMIV
HKEC
YFCS
HICS
KEPR
GDAL
EFNS

one-hybrid fitness for binding NBS DNA, 0.366:
QYKN

one-hybrid fitness for binding NBS DNA, 0.736:
RMRR

one-hybrid fitness for binding NBS DNA, 0.286:
QTNG

one-hybrid fitness for binding NBS DNA, 0.214:
NSHR

one-hybrid fitness for binding NBS DNA, 0.437:
TRKS

one-hybrid fitness for binding NBS DNA, 0.351:
RVYS

one-hybrid fitness for binding NBS DNA, 0.388:
RCWS

one-hybrid fitness for binding NBS DNA, 0.251:
QTAQ

one-hybrid fitness for binding NBS DNA, 0.398:
QTIS

one-hybrid fitness for binding NBS DNA, 0.453:
RYTS

one-hybrid fitness for binding NBS DNA, 0.357:
QARM

one-hybrid fitness for binding NBS DNA, 0.257:
QCYH

one-hybrid fitness for binding NBS DNA, 0.486:
QRYH
